These results are taken from the supplement of paper PMC11417369.

Some of the results follow.

In the assay the test system is PF3D7_0420300 AP2 domain 1 (GST-tagged). Put plainly: gcPBM binding intensity (ln(normalized median fluorescence intensity)); higher = stronger DNA binding. In short, it runs like this: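 Binding intensity is defined as the maximum Masliner-normalised natural-log median intensity across replicate spots for either probe orientation. It was measured on an Agilent 4 × 180k array of primer-extended double-stranded 36-bp intergenic genomic probes and negative controls, to which GST-tagged P. falciparum DNA-binding domains made in E. coli were applied for 1 h in 1× PBS with 1% milk, 0.2 mg/ml BSA, 0.5% salmon testes DNA and 0.03% Triton X-100. Detection was by Alexa488 anti-GST antibody and scanning at 488 nm.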
“ATAATATGAAATATAACACACATATATAAAAACATT [CACACA_site866]”: the “gcPBM binding intensity (ln)” value was 9.72.

As for “TATTTTTTTTTTGGGTGTACCTTTTATATATATTGT [XGTACX_site5036]”, the “gcPBM binding intensity (ln)” value turned out to be 9.51.

As to “TATACACATTTTTATACACACTTGTTTTATAAAACG [CACACA_site6480]”, the “gcPBM binding intensity (ln)” value turned out to be 9.44.

“ACAAAACGAACATACGCATGTGTGTACATTAATATA [TGCATGCA_site922]”: the “gcPBM binding intensity (ln)” value came out at 9.69.

“TTATTTACATCAAGTACATGCAGTAAAAAAAAAAAA [TGCATGCA_site351]”: the “gcPBM binding intensity (ln)” value came to 9.08.

“CACCAATTCCTATGCACACACATCTGCATATTATAT [CACACA_site5049]”: the “gcPBM binding intensity (ln)” value amounted to 9.93.

Turning to “ATATAATATATGTATACACACATATTATATAATATT [CACACA_site3699]”, the “gcPBM binding intensity (ln)” value was determined as 9.38.

As for “ATGAACAGTTCATGTTGTACAATCTCCATTTTTTAC [XGTACX_site3933]”, the “gcPBM binding intensity (ln)” value was 9.35.

Turning to “CAATATAAAAAACACACACACAAACATATATTTATA [CACACA_site3703]”, the “gcPBM binding intensity (ln)” value worked out at 10.1.

Take “TATTTATATAAAAATACACACATGAATGGATATATA [CACACA_site6335]”: the “gcPBM binding intensity (ln)” value was found to be 9.55.

Consider “TGTCGGCTTAGATTAGTGCACTGAAAAATGAAGTAT [GTGCAC_site9919]”, for which the “gcPBM binding intensity (ln)” value was determined as 9.

Regarding “AATATAGTTCAATATACACACCCCTTTATTCATTTT [CACACA_site3625]”, the “gcPBM binding intensity (ln)” value turned out to be 9.58.

In the case of “GTAACATACACATATACACACACACCGATATACATA [CACACA_site8278]”, the “gcPBM binding intensity (ln)” value was 10.2.

“ATTAATTAAGGCACATGTACAAAATATTTTTTATAA [XGTACX_site1964]”: the “gcPBM binding intensity (ln)” value came to 9.02.

For “TATACAATCTATATAACACACATATTTATATAAAAT [CACACA_site1797]”, the “gcPBM binding intensity (ln)” value was 9.46.

On to “AAAAAAATTAAACATGAAGAATAAGGAACAAAAAAA [CACACA_negctrl_site1607]”, for which the “gcPBM binding intensity (ln)” value worked out at 9.62.

“TTTAATCATATGTTATATAATAAGCCCCCCCCCCAA [CACACA_negctrl_site486]”: the “gcPBM binding intensity (ln)” value stood at 10.4.

“ATTTAAGTAGTACATACACACACATATACAAAAAGA [CACACA_site9317]”: the “gcPBM binding intensity (ln)” value stood at 9.93.

As for “ATGGGACATATATATACACACATATATATATATATA [CACACA_site1202]”, the “gcPBM binding intensity (ln)” value turned out to be 9.46.

Regarding “TTTCGATTAAAAATTGTACAATATAAGGAGCACACA [GTGCAC_negctrl_site476]”, the “gcPBM binding intensity (ln)” value came out at 9.31.

With “TAAAAAAAAAAATGAACATGCAACAATTGTGATGAA [TGCATGCA_site332]”, the “gcPBM binding intensity (ln)” value is 9.51.

On to “AACCACAGACATATAACACACATATACAATATATAT [CACACA_site5142]”, for which the “gcPBM binding intensity (ln)” value came out at 9.81.

For CTTTTTTTGACCTTAGTGCAAATAACTATATATTAT, the “gcPBM binding intensity (ln)” value is 9.14.

For “ATGAAAATTATAAAGTGTACATATAGAAACATTTAC [XGTACX_site8047]”, the “gcPBM binding intensity (ln)” value was determined as 9.47.

Consider “ACTGTAACAATCATGGGTACAAATAAAATAATATCT [XGTACX_site99]”, for which the “gcPBM binding intensity (ln)” value was determined as 9.42.

“TTTTGTCTTATATGTTGTACAACGTAAACAAAAAAA [XGTACX_site4412]”: the “gcPBM binding intensity (ln)” value is 8.84.

Turning to “AAAAGAATATATAATTGTACTTAAAATATAATTAAG [XGTACX_site4484]”, the “gcPBM binding intensity (ln)” value was determined as 9.14.

For the sequence “CATTTCGAAAAAAAATGTACTTATTATATTTATATA [XGTACX_site6752]”, the “gcPBM binding intensity (ln)” value was 8.94.

As to “TGTATATATTATAAAAGTACATAATATTCTTAGATA [XGTACX_site5623]”, the “gcPBM binding intensity (ln)” value is 9.05.

In the case of “TTATCTTACATAAATTATAACAATAATATGTGTATA [XGTACX_negctrl_site379]”, the “gcPBM binding intensity (ln)” value is 9.01.

For the sequence “ACATCTCTTATATATTCACACACATATATATAATTA [CACACA_site8424]”, the “gcPBM binding intensity (ln)” value was 9.83.

For “TTTTTTTTTTAATTCGCACACTGTCTTCATGCAATT [CACACA_site4882]”, the “gcPBM binding intensity (ln)” value worked out at 9.27.

Regarding “TTAAAAAATTTTTAAGCACACACATAGATAATATAT [CACACA_site8440]”, the “gcPBM binding intensity (ln)” value is 9.58.

With “GCACATCTATATGAAACACACATGGAAACATCTCTT [CACACA_site7793]”, the “gcPBM binding intensity (ln)” value was determined as 9.44.

As to “GAAACTTCAAGAAATGCACACAATAAAATAAATAAA [CACACA_site1549]”, the “gcPBM binding intensity (ln)” value is 9.4.

Regarding “AGCATTAAAAATGGAATGGAATTAAGCTATATATTA [CACACA_negctrl_site1571]”, the “gcPBM binding intensity (ln)” value came out at 9.28.

For the sequence “AGTATATATTATATATATATATATATATTATATATG [TGCATGCA_negctrl_site99]”, the “gcPBM binding intensity (ln)” value was 9.1.

For “ATAGAATATTATATTACACACAGAATAATAAAAAAT [CACACA_site86]”, the “gcPBM binding intensity (ln)” value was determined as 9.62.

As for “TAACATATCTTTAATACACACTTAAAAAAGTACTTA [CACACA_site4532]”, the “gcPBM binding intensity (ln)” value was determined as 9.15.

Turning to “GGAAACACAATATATACACACATATATATATATATA [CACACA_site235]”, the “gcPBM binding intensity (ln)” value amounted to 9.46.

For the sequence “ACACTTAAATATTGTTGTACAAAATGATAAAATGTA [XGTACX_site4588]”, the “gcPBM binding intensity (ln)” value is 9.25.

For “TTATATAACCCTCATGCATGCTAAGAAAAAAAAAAC [TGCATGCA_site936]”, the “gcPBM binding intensity (ln)” value amounted to 9.3.

As for “ATTTATATTATAATATGTACACAAAAAAAATTAGGA [XGTACX_site565]”, the “gcPBM binding intensity (ln)” value stood at 9.24.

Consider “TTGATGTATACAATGTAGATTATTTAATATTTCAAT [GTGCAC_negctrl_site203]”, for which the “gcPBM binding intensity (ln)” value came out at 9.01.
